In the supplement of paper PMC6135742:
Structures can show the parent of a compound that is named as a salt. ± gives the standard deviation of the averaged measurements. Over roughly 2,600 compounds, “MBP+ mature oligodendrocyte number relative to DMSO vehicle control” has its median near -0.34; the highest 2% begin near 13. Some of the results follow.
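Also: 10 µM single dose with 3-day oligodendrocyte differentiation.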

The compounds below were run on jimpy (Plp1 jimpy) mouse iPSC-derived oligodendrocyte progenitor cells (assay: MBP+ mature oligodendrocyte number relative to DMSO vehicle control (SDs above negative control mean); higher = more surviving jimpy oligodendrocytes (rescue)). Conditions: 10 µM; 3 days.
CCCCCCN(CCCCCC)C(=O)Cc1c(-c2ccc(F)cc2)[nH]c2ccccc12 [N,N-Dihexyl-2-(4-fluorophenyl)indole-3-acetamide] was tested, and the “MBP+ mature oligodendrocyte number” value was 6.15.
In the case of CCN(CC)CCNC(=O)c1ccc(NC(C)=O)cc1 [N-Acetylprocainamide hydrochloride], the “MBP+ mature oligodendrocyte number” value is reported as 0.353.
N[C@@H]1CN(c2c(F)cc3c(=O)c(C(=O)O)cn([C@@H]4C[C@@H]4F)c3c2Cl)CC12CC2 [Sitafloxacin Hydrate] was tested, and the “MBP+ mature oligodendrocyte number” value was 1.74.
With CC(=O)NNC(=O)N1Cc2ccccc2Oc2ccc(Cl)cc21 the “MBP+ mature oligodendrocyte number” value was -0.497.
For CNC[C@H](O)c1cccc(O)c1 [Phenylephrine HCl], the “MBP+ mature oligodendrocyte number” value was -0.948.
With CNC[C@H](O)c1cccc(O)c1 [Phenylephrine hydrochloride] the “MBP+ mature oligodendrocyte number” value was < -3.97.
With CCN(CC)CCn1c(=O)c(Cc2ccc(OC)cc2)nc2ccccc21 [Caroverine hydrochloride] the “MBP+ mature oligodendrocyte number” value was -0.211.
With CO[C@H]1C[C@@H]2CC[C@@H](C)[C@@](O)(O2)C(=O)C(=O)N2CCCC[C@H]2C(=O)O[C@H]([C@H](C)C[C@@H]2CC[C@@H](O)[C@H](OC)C2)CC(=O)[C@H](C)/C=C(\C)[C@@H](O)[C@@H](OC)C(=O)[C@H](C)C[C@H](C)/C=C/C=C/C=C/1C [Rapamycin (Sirolimus)] the “MBP+ mature oligodendrocyte number” value was -5.74.
With Nc1nc2ccc(Cl)cc2n2c(-c3ccccc3)nnc12 the “MBP+ mature oligodendrocyte number” value was 0.304.
COc1cc2ncnc(Nc3ccc(Cl)cc3F)c2cc1OC was tested, and the “MBP+ mature oligodendrocyte number” value was -2.75.
CNc1cc(NS(=O)(=O)c2ccc(N)cc2)nc(NC)n1 [Ro 04-6790 dihydrochloride] was tested, and the “MBP+ mature oligodendrocyte number” value was 1.72.
For Oc1ccc(Nc2nc(-c3ccc(Cl)cc3)cs2)cc1, the “MBP+ mature oligodendrocyte number” value was < -6.35.
For Cc1ccc(C(=O)NCCCCCC(=O)Nc2ccccc2N)cc1, the “MBP+ mature oligodendrocyte number” value was -5.76.
For N#Cc1ccc2[nH]c(O)c(-c3ccc(CN4CCOCC4)cn3)c2c1, the “MBP+ mature oligodendrocyte number” value was -6.1.
In the case of CCN(CC)CCCC(C)Nc1c2ccc(Cl)cc2nc2ccc(OC)cc12 (configuration not stated) [Quinacrine dihydrochloride], the “MBP+ mature oligodendrocyte number” value is reported as < -3.85.
In the case of CCN(CC)CCCC(C)Nc1c2ccc(Cl)cc2nc2ccc(OC)cc12 (configuration not stated) [Quinacrine 2HCl], the “MBP+ mature oligodendrocyte number” value is reported as -5.34.
CC(C)(C)NS(=O)(=O)c1cncc(-c2cc(F)c3nc(N)nn3c2)c1 was tested, and the “MBP+ mature oligodendrocyte number” value was 4.04.
With O=C(O)P(=O)(O)O [Foscarnet Sodium] the “MBP+ mature oligodendrocyte number” value was -1.56.
For C#C[C@]1(O)CC[C@H]2[C@@H]3CCc4cc(OC)ccc4[C@H]3CC[C@@]21C [Mestranol], the “MBP+ mature oligodendrocyte number” value was 12.8.
For CC1=C(C)C(=O)C(CCCCC#CCCCC#CCO)=C(C)C1=O, the “MBP+ mature oligodendrocyte number” value was 1.33.
CN(C)C(=O)c1ccc(S(=O)(=O)c2ccc(NC(=O)[C@@](C)(O)C(F)(F)F)c(Cl)c2)cc1 was tested, and the “MBP+ mature oligodendrocyte number” value was 19.5.
In the case of COc1ccc2cccc(CCNC(C)=O)c2c1 [Agomelatine], the “MBP+ mature oligodendrocyte number” value is reported as -0.795 ± 0.94.
